Hit rate of the full screen: of about 310,000 compounds, about 2,200 (0.71%) showed an effect of 50% or more. The effect is printed as a negative number. The list shows a part of the results.
Molecular target: human ether-à-go-go-related gene (hERG) potassium channel (human, UniProt Q12809)
Test: primary screen, population patch clamp on CHO cells stably expressing hERG

human ether-à-go-go-related gene (hERG) potassium channel, sequence (Q12809 whole entry, looked up): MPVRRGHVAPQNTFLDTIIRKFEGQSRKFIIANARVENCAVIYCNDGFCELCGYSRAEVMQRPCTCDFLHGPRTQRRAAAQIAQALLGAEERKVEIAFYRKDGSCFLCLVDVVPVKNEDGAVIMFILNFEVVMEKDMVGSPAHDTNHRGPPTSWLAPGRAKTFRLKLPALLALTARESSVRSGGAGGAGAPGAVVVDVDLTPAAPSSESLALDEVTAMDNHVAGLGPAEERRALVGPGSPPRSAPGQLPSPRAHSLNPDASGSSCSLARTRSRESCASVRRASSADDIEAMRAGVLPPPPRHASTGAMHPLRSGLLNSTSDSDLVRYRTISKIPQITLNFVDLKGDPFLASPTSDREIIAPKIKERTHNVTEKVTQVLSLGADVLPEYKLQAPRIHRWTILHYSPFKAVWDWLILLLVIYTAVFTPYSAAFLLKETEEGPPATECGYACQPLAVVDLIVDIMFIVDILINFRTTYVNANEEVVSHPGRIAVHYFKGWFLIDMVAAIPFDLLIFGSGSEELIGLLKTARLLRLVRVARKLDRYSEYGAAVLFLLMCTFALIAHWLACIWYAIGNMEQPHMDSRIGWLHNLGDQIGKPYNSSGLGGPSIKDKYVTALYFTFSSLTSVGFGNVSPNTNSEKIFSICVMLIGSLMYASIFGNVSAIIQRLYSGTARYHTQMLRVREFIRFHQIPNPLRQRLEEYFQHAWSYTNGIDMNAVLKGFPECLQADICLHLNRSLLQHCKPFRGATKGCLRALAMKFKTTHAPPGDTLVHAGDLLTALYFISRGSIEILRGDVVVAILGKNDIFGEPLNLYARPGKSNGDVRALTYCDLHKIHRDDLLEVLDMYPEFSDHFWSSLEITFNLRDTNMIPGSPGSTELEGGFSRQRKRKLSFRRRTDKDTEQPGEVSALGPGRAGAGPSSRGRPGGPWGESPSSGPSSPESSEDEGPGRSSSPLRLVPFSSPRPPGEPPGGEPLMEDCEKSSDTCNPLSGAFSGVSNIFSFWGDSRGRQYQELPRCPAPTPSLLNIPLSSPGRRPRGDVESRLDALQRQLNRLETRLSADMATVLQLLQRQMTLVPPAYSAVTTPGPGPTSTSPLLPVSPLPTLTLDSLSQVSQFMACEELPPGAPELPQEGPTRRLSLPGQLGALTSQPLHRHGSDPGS

| Structure (SMILES) | hERG current change (%, negative = inhibition) at 1uM [%] |
| --- | --- |
| CCN(CCn1cccn1)Cc1c(C(=O)N2CCCCCCC2)nc2ccc(Cl)cn12 | -8.7 |
| CCC1CCCCN1S(=O)(=O)c1ccc(NC(=O)c2ccncc2)cc1 (centres unmarked) | 10.3 |
| Clc1ccc(CSc2nnnn2-c2ccc3c(c2)OCO3)c(Cl)c1 | 13 |
| Cc1[nH][nH]c(=O)c1C(c1ccc2c(c1)OCO2)c1c(C)[nH][nH]c1=O | 4.14 |
| Cc1cc(C)n(-c2ccc(C(=O)NCc3cccs3)cc2)n1 | -1.92 |
| O=C(Nc1ccc(S(=O)(=O)N2CCCC2)cc1)c1cnccn1 | 16.3 |
| COc1ccccc1N1N=C(c2cccs2)CC1c1ccccc1 (centres unmarked) | 5.35 |
| CCCCn1c(O)c(C=NCCN2CCCCC2)c(=O)[nH]c1=O | 3.5 |
| Cc1ccc(C(C)(C)C)c(OCCN2CCCC2)c1 | -0.547 |
| N#Cc1cccc2c1-c1ccccc1/C2=N/NC(N)=S | 7.69 |
| COc1cc(CC(=O)NNC(=O)c2cc(C)oc2C)cc(OC)c1OC | 13.3 |
| CC(C)(C)c1ccc(-c2ccc3c(c2)S(=O)(=O)c2ccccc2C3=O)cc1 | 12.7 |
| COc1ccc2nc(NNC(=O)COc3ccccc3)sc2c1 | 4 |
| CSc1nc2nc3c(c(=O)n2[nH]1)CCCC3 | 5.44 |
| O=C(Cc1ccccc1[N+](=O)[O-])OCC(=O)c1c[nH]c2ccccc12 | 17.3 |
| Cc1ccc2c(C(=O)CCl)c(C)[nH]c2c1 | 11.7 |
| CCOc1ccc(Nc2ncnc3c2cnn3-c2ccccc2)cc1 | 9.38 |
| COc1ccc(C(=O)c2cnc(/N=C/N(C)C)s2)cc1 | 3.84 |
| COc1cccc(N(Cc2nnc3n2CCCCC3)C(=O)Nc2ccccc2)c1 | 14.5 |

| Structure (SMILES) | hERG current change (%, negative = inhibition) at 1uM [%] |
| --- | --- |
| Cc1nn(C)cc1CNC(=O)Nc1ccc(Cl)c(Cl)c1 | 3.91 |
| CCOc1cccc2cc(C(=O)Nc3ccccc3-c3ccccc3)c(=O)oc12 | 0.466 |
| O=C(Nc1nnc(-c2ccc(Cl)cc2)o1)Nc1ccccc1F | 9.96 |
| CC1(C)CN=C(Nc2ccc(F)c(Cl)c2)S1 | 5.48 |
| COc1ccc(N(CC(=O)Nc2ccc(C)c(C)c2)C2=NC3CS(=O)(=O)CC3S2)cc1 (centres unmarked) | 15.1 |
| COCCN(C(=O)Cn1nnc2ccccc21)C(C(=O)NC1CCCC1)c1cccc(OC)c1OC (centres unmarked) | 8.66 |
| N/C(=N\OC(=O)COc1ccc([N+](=O)[O-])cc1)c1ccncc1 | -1.38 |
| CC1=C(C(=O)OC2CCCCCCC2)C(c2cccc(O)c2)NC(=O)N1 (centres unmarked) | 2.91 |
| COc1ccc(C(=O)ON=C2C=C(C)C(=O)C(C)=C2)cc1 | 7.17 |
| COc1ccc(Br)c(C(=O)NC(C)(C)CO)c1 | 7.17 |
| CCc1ccc(OCC(=O)NNC(=O)Cc2c(F)cccc2Cl)cc1 | 17 |
| O=C(CN1C(=O)COc2ccc(S(=O)(=O)N3CCCC3)cc21)NCc1ccccn1 | 11.1 |
| COc1ccc(S(N)(=O)=O)cc1C(=O)N1CCCC1 | 6.16 |
| COc1ccc(NC(=S)N/C(=N/CS(=O)(=O)c2ccccc2)c2ccccc2)cc1 | 0.146 |
| CN(C)/C=N/c1cnc(C(=O)c2ccc(Cl)cc2)n1C | 10.2 |
| COc1ccc(N2CCN(C(CNC(=O)C(=O)NCc3cccs3)c3ccco3)CC2)cc1 (centres unmarked) | 7.48 |
| O=C(CCc1nc2ccccc2c(=O)[nH]1)N1CCN(C/C=C/c2ccccc2)CC1 | -12.3 |
| CC(=O)n1c(=O)oc2ccccc21 | 16.9 |
| CCOC(=O)C1CCN(S(=O)(=O)c2cccc(C(=O)Nc3ccccc3)c2)CC1 | 2.34 |

| Structure (SMILES) | hERG current change (%, negative = inhibition) at 1uM [%] |
| --- | --- |
| CC(=O)Nc1cccc(NC(=O)c2cc3ccccc3o2)c1 | 12.1 |
| O=C(c1cccnc1)N(c1cc2sc(=O)oc2c2ccccc12)S(=O)(=O)c1ccccc1 | 13 |
| O=C(Nc1nc(-c2cccnc2)cs1)c1cccc([N+](=O)[O-])c1 | 4.12 |
| CC1=C(C(=O)Nc2ccccc2C)C(c2ccccc2)NC(=O)N1 (centres unmarked) | 10.1 |
| COC(=O)C1CCN(C(=O)CSc2nnc(-c3ccccc3)o2)CC1 | 12.8 |
| Cc1ccc(Cn2nnc3c(=O)[nH]c(C4CCN(S(=O)(=O)c5ccc(F)cc5)CC4)nc32)cc1 | 4.95 |
| CCn1c(CNC(=O)c2ccc(OC)cc2)nnc1SCC(=O)c1ccccc1 | 12.9 |
| CSc1ccccc1NC(=O)C(=O)c1c[nH]c2ccccc12 | 0.595 |
| CCOc1ccc(-c2c(C(=O)N/N=C/C3CC=CCC3)nnn2-c2nonc2N)cc1 (centres unmarked) | 10.3 |
| O=C(NCc1ccccn1)Nc1cccc(F)c1 | 11.8 |
| CCOC(=O)c1ccc(NC(=O)c2nc(S(=O)(=O)Cc3ccccc3)ncc2Cl)cc1 | 15.9 |
| COc1ccc(C(=O)NCc2cccnc2)cc1C(=O)NCc1cccnc1.O | 6.49 |
| CC(C)(C)OC(=O)NCCCC[C@H](NC(=O)c1nc[nH]c1C(=O)N[C@@H](CCCCNC(=O)OC(C)(C)C)C(=O)OC(C)(C)C)C(=O)OC(C)(C)C | 5.22 |
| COC(=O)/C(=C\Nc1ccc(Oc2ccc(F)cc2F)nc1)NC(=O)c1ccccc1 | 13.1 |
| COc1cccc(C#Cc2c(CO)[nH]c3ccccc23)c1 | 5.95 |
| CNC(=S)N/N=C(\C)c1ccc(Cl)c(Cl)c1 | 8.53 |
| CCOC(=O)c1c(C)[nH]c(C)c1C(=O)CSc1nc2ccccc2c(=O)n1-c1ccc(CC)cc1 | 8.59 |
| O=C(CCn1ccc2cc(S(=O)(=O)N3CCCC3)ccc21)NCc1ccccc1F | 13.7 |

From publication PMC4336329 (PLoS ONE, 2015)
